# Experimental data taken from PubChem BioAssay AID2101 (National Center for Advancing Translational Sciences (NCATS), 2009).
# Screen size: about 330,000 compounds; about 300 (0.091%) were called active. Not shown: some 4% with an inconclusive outcome. The call rests on the fitted dose curve; in most records, active means well fitted inhibition curve with a large enough effect; inconclusive means small, poorly fitted or top-dose-only effect, or effect the other way, or another doubt; inactive means no such curve, though single readings can be large or run the other way. Only a part is listed here, and it is no random draw.
# Target: Lysosomal acid glucosylceramidase (Homo sapiens) (UniProt P04062)
# Test: qHTS Assay for Inhibitors and Activators of N370S glucocerebrosidase as a Potential Chaperone Treatment of Gaucher Disease;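 on activity change, negative = inhibition: 0% = full enzyme activity and -100% = no enzyme basal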
# Conditions: N370S GC spleen homogenate, 4MU-glucoside fluorescence; series mostly up to 59.4 µM; activity change, negative = inhibition: at the top concentration
# Potency means the concentration at half of the fitted maximal effect.
Compound,Potency,"activity change, negative = inhibition"
CC(C)(C)C(=O)OCCNc1nc(-c2ccccc2)nc2ccccc12,active: 0.891 µM,
C#CCOCCOCCOCCNc1nc(N2CCN(C(=O)CCCCCCCCCCNC(=O)Cn3cc(C[C@@H](C)O)nn3)CC2)nc(N2CCN(C(=O)CCCCCCCCCCNC(=O)[C@H](CCCCN)n3cc(C[C@@H](C)CC)nn3)CC2)n1,active: 22.4 µM,
COc1cccc(-c2nccc(NCc3cccs3)n2)c1,active: 3.98 µM,
O=C(Nc1ccccc1)C1=C[C@@H](c2coc3ccccc3c2=O)C[C@@H](OCc2ccc(CO)cc2)O1,,inactive: 11.5%
COc1cccc2c1[C@@H]1CN(CCCCn3c(=O)[nH]c4c(sc5ncc(-c6ccccc6)nc54)c3=O)C[C@@H]1CO2,,inactive: -9.93%
O=C(NC1CC1)C1=C[C@H](C2CCCCC2)C[C@H](OCc2ccc(CO)cc2)O1,,inactive: 10.7%
NC(=NCc1ccccc1)NC(=O)c1nc(Cl)c(N)nc1N,inactive,
O=C(OC[C@H]1O[C@@H](OC(=O)c2cc(O)c(O)c(OC(=O)c3cc(O)c(O)c(O)c3)c2)[C@H](OC(=O)c2cc(O)c(O)c(OC(=O)c3cc(O)c(O)c(O)c3)c2)[C@@H](OC(=O)c2cc(O)c(O)c(OC(=O)c3cc(O)c(O)c(O)c3)c2)[C@@H]1OC(=O)c1cc(O)c(O)c(OC(=O)c2cc(O)c(O)c(O)c2)c1)c1cc(O)c(O)c(OC(=O)c2cc(O)c(O)c(O)c2)c1,,inactive: -9.94%
COc1cc(C(CC(=O)N2CCN(c3ccccc3)CC2)c2c(OC)cc(OC)c3ccc(=O)oc23)cc(OC)c1OC (configuration not stated),,inactive: 3.67%
COC(=O)[C@H](Cc1ccccc1)NC(=O)O[C@H]1C(=O)c2cc(OC)ccc2O[C@@H]1c1ccc(OC)c(Br)c1,inactive,
CCOc1ccc(N(CC(=O)Nc2ccc(C)c(C)c2)S(=O)(=O)c2c(C)[nH]c(=O)[nH]c2=O)cc1,active: 7.08 µM,
O=C(O)c1cc(-c2ccco2)nc2ccccc12,,inactive: 17.3%
COc1cc(C2Oc3cc(C4Oc5cc(O)cc(O)c5C(=O)C4O)ccc3OC2CO)ccc1O (configuration not stated),,inactive: -15.4%
Oc1cccc(Nc2nc(-c3ccccc3)nc3ccccc23)c1,active: 2.82 µM,
CCCC[C@@H]1C[C@H]1[C@@H](NC(=O)c1ccco1)c1ccc(Cl)cc1,,inactive: 2.44%
O=C(C1=C[C@H](c2csc3ccccc23)C[C@H](OCc2ccc(CO)cc2)O1)N1CCN(Cc2ccc3c(c2)OCO3)CC1,,inactive: -15.5%
CCOc1ccccc1CNc1ccc(O)cc1,active: 5.62 µM,
NCCCC[C@H]1NC(=O)[C@H](CCC(=O)O)NC(=O)c2cc([N+](=O)[O-])cc(I)c2OCC[C@@H](C(N)=O)NC1=O,,inactive: 6.19%
Cc1ccc(NC(=O)OCCN2CCN(Cc3ccccc3)CCC2=O)cc1C,,inactive: -11.2%
CCOc1ccc(N(CC(=O)Nc2c(C)cccc2C)S(=O)(=O)c2c(C)[nH]c(=O)[nH]c2=O)cc1,active: 4.47 µM,
COc1cc(OC)c2c(-c3ccccc3)cc(=O)oc2c1C(CCN1CCCCC1)c1ccc2c(c1)OCO2 (configuration not stated),,inactive: -25.5%
CCCCCCCCCCOC(=O)Cn1c(COc2ccc(OC)cc2)[n+](C)c2ccccc21,,inactive: -12.6%
COc1cc2nc(N(C)CCCNC(=O)C3CCCO3)nc(N)c2cc1OC (configuration not stated),,inactive: 29.8%
O=c1c(OC2OC(CO)C(O)C(O)C2O)c(-c2ccc(O)c(O)c2)oc2cc(O)cc(O)c12 (configuration not stated),,inactive: -12.7%
O=C(NCCCCc1ccccc1)C12CN(Cc3ccccc3)CC1C(c1ccc([N+](=O)[O-])cc1)=NO2 (configuration not stated),active: 10 µM,
CC(=O)n1cc([C@H]2C=C(C(=O)N3CCN(Cc4ccc5c(c4)OCO5)CC3)O[C@@H](OCc3ccc(CO)cc3)C2)c2ccccc21,,inactive: -4.17%

Compound,Potency,"activity change, negative = inhibition"
COc1ccc(C(CC(=O)N2CCCC2)c2c(OC)cc(OC)c3ccc(=O)oc23)cc1 (configuration not stated),,inactive: 18.3%
C[C@H](NC(=O)c1nc[nH]c1C(=O)N[C@@H](CCCCNC(=O)OC(C)(C)C)C(=O)OC(C)(C)C)c1ccccc1,,inactive: 23.4%
CC(=O)Oc1ccccc1C(=O)O,inactive,
CCN(CC)c1ccc(/C=C2\SC(=O)N(C(C)C)C2=O)o1,,inactive: -26.6%
CCCCCCCCCCCCCCC[C@H](O)[C@@H](N)CO,inactive,
COc1ccccc1CNc1nc(-c2ccc3c(c2)OCO3)nc2ccccc12,active: 15.8 µM,
C(C#CCCCCCCCCC[n+]1ccccc1)#CCCCCCCCCC[n+]1ccccc1,active: 11.2 µM,
C1COC(NC(C2CC2)C2CC2)=N1,inactive,
COC(=O)C1C(O)CCC2CN3CCc4c([nH]c5ccccc45)C3CC21 (configuration not stated),,inactive: 13.3%
OCCN1CCN(CC/C=C2\c3ccccc3Sc3ccc(C(F)(F)F)cc32)CC1,,inactive: 5.12% [at 21.6 µM]
CC1=NN(c2ccccc2)C(=O)C1,inactive,
COC1/C=C/OC2(C)Oc3c(C)c(O)c4c(O)c(c(/C=N/N5CCN(C)CC5)c(O)c4c3C2=O)NC(=O)/C(C)=C/C=C/C(C)C(O)C(C)C(O)C(C)C(OC(C)=O)C1C (configuration not stated),,inactive: -17.6%
COC(=O)C1=C(C)N(Cc2ccco2)C(=O)N[C@H]1c1cccc(C(F)(F)F)c1,inactive,
N#C/C(=C\c1ccc(N2CCOCC2)o1)C(=O)NC1CCCCC1,,inactive: -11.9%
CN(C)c1ccc(N=C/C=C2/N(C)c3ccccc3C2(C)C)cc1,,inactive: -21.3%
CCCC1OC2CC3C4CCC5=CC(=O)C=CC5(C)C4C(O)CC3(C)[C@]2(C(=O)CO)O1 (some centres not stated),,inactive: -5.86%
Cc1cc(C)cc(N(CC(=O)Nc2ccc(C)cc2Cl)S(=O)(=O)c2c(C)[nH]c(=O)[nH]c2=O)c1,active: 0.251 µM,
CC(=O)OC(C)(C)C1Cc2cc3ccc(=O)oc3cc2O1 (configuration not stated),,inactive: 0.382%
CC[N+](CC)(CC)CCOc1ccc(/C=C/c2ccccc2)cc1,,inactive: -16.7%
COc1ccccc1[C@@H]1C(c2ccc(F)cc2)=NN(c2ccccc2)[C@H]1C(=O)N1CCOC1=O,,inactive: 25.5%
O=C(CSc1nc2ccccc2[nH]1)N/N=C/C=C\c1ccccc1[N+](=O)[O-],,inactive: 28.7%
COC(=O)[C@@H]1[C@@H]2C[C@H]3c4[nH]c5ccccc5c4CCN3C[C@@H]2CC[C@@H]1O,inactive,
CCCc1c(-c2ccc(O)cc2)nn(-c2ccc(O)cc2)c1-c1ccc(O)cc1,,inactive: -13.9%
Fc1ccc(CNc2nc(-c3ccccc3)nc3ccccc23)cc1,active: 14.1 µM,
Oc1ccc(NC(=S)Nc2ccccc2)cc1,,inactive: 18.2%
O=C(OCCN=C1NS(=O)(=O)c2ccccc21)C1CC(=O)N(c2ccc3ccccc3c2)C1 (configuration not stated),active: 3.55 µM,
